Assay results taken from PubChem BioAssay AID1508624 (National Center for Advancing Translational Sciences (NCATS), 2021).
Hit rate of the full screen: of about 48,000 compounds, about 120 (0.25%) were called active. Another 4% or so got no clear call; they are omitted. The call rests on the fitted dose curve; in most records, active means well fitted activation curve with a large enough effect; inconclusive means small, poorly fitted or top-dose-only effect, or another doubt; inactive means no such curve, though single readings can be large or run the other way. Some of the results follow.

experiment: Primary qHTS for Identification of Small Molecule Activators of Huntingtin-Antisense Promoter Activity; settings: HEK293 HTT-AS promoter firefly luciferase reporter, 24 h; series mostly up to 57.5 µM; activity change, positive = activation: at the top concentration; further: nearly all actives have a fitted effect of over 55% in size
Summary of the method: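 HEK293 Fluc reporter, 2,500 cells/well, 24 h pre-culture; cpds up to 57.5 uM final, 24 h 37 degrees C; Dual-Glo, 10 min RT; normalized vehicle = 0%, zero RLU = -100%.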

Activity change, positive = activation, inactive:
Cc1cc(C)c(Cn2c(=O)n(CCCCCC(=O)NCc3ccc4c(c3)OCO4)c(=O)c3sccc32)c(C)c1 -11.2%
O=C(CSCc1ccc(F)cc1)N1CCN(c2ccccc2)CC1 20%
COc1cccc(NC(=O)Cn2c(=O)n(-c3cccc(OC)c3)c(=O)c3c4c(sc32)CCCC4)c1 2.19%
CCc1cccc2c3c([nH]c12)C(CC)(CC(=O)O)OCC3 (stereo not given)
CCc1ccc(C2C(C(=O)Nc3ccccc3)=C(C)Nc3nc(SCC(=O)c4ccc(C)cc4)nn32)cc1 (stereo not given) 3.09%
CC(=O)c1ccc(NC(=O)Cn2c3ncccc3c(=O)n2-c2ccc(C)cc2)cc1 -25.3%
COc1ccc(NC(=O)c2cnc(SCC(=O)Nc3nc4ccc(C)cc4s3)n(C)c2=O)cc1 24.7%
Cc1ccc(-c2noc(CSc3nnc(-c4ccc(Cl)cc4)n3C)n2)cc1 -16%
Cc1cccc(C(=O)NCC(c2ccc3c(c2)OCO3)N2CCOCC2)c1 (stereo not given) -11.1%
O=C(c1ccco1)c1cn(CCOc2ccc(Cl)cc2)c2ccccc12 -9.28%
O=C(c1cccs1)N1CCCc2cc(NS(=O)(=O)c3ccc(Cl)cc3)ccc21 -30.7%
Cc1noc(NS(=O)(=O)c2ccc(N)cc2)c1C
COc1ccc(C(CNC(=O)c2ccc(C)cc2)N2CCOCC2)cc1 (stereo not given) -7.37%
CCC(=O)N1CCc2cc(CNC(=O)Nc3ccc(OC)cc3OC)ccc21 -0.752%
O=C(NCCc1ccccc1)C(=O)NCC(c1cccnc1)N1CCN(c2ccc(F)cc2)CC1 (stereo not given) -48.6%
O=C(CSc1nccn1Cc1ccccc1)NC1CCCC1 -1.9%
O=C(CCCc1nc(-c2ccco2)no1)Nc1ccccc1[N+](=O)[O-] -11%
COc1cccc(-n2c(=O)c3c4c(sc3n(Cc3ccc(F)cc3Cl)c2=O)CCCC4)c1 5.45%
COc1ccc(C2=NN(C(C)=O)C(c3cn(-c4ccccc4)nc3-c3cccs3)C2)cc1 (stereo not given) -32.4%
COc1ccc(-c2[nH]ncc2C(=O)NCc2cccc(F)c2)cc1 -8.68%
CCC1CCCCN1S(=O)(=O)c1ccc(N2CCCCS2(=O)=O)cc1 (stereo not given) -2.4%
CCOC(=O)c1ccc(NC(=O)c2c(C)oc3nc(C)nc(N4CCCC4)c23)cc1 2.11%
C[C@@H]1CN(CC(=O)Nc2ccc3c(c2)Cc2cccc(-c4cc(=O)cc(N5CCOCC5)o4)c2S3)C[C@H](C)O1 -36.9%
Cc1ccc(-n2nc(-c3ccc(F)cc3)c3cnc4cc5c(cc4c32)OCO5)cc1C -12.6%
CCc1ccc(NC(=O)CC(c2ccc(C)cc2)N2Cc3ccccc3C2=O)cc1 (stereo not given) -16.9%
Cc1ccc(Cl)cc1N1CCN(C(=O)CCSCc2ccccc2F)CC1 -10.3%
CCc1ccc(-c2cc(C)no2)cc1S(=O)(=O)N1CCN(c2cccc(Cl)c2)CC1 -45.7%
Cc1c(C(=O)Nc2ccc(Br)cc2F)oc2ccc(S(=O)(=O)N3CCC4(CC3)OCCO4)cc12 -20.1%
COc1ccc(NC(=O)c2oc3ccc(S(=O)(=O)N(C)C4CCCCC4)cc3c2C)cc1Cl -29.3%
Cc1ccc(CN(C(=O)c2ccccc2Br)C2CCS(=O)(=O)C2)o1 (stereo not given) -9.54%
O=C(NCc1ccc(Cl)cc1)C(=O)Nc1cccc(Br)c1 -19.1%
CC1CCC(NC(=O)c2ccc3c(c2)N(Cc2cccc(Cl)c2)C(=O)c2ccccc2S3=O)CC1 (stereo not given) 26.7%
Cn1c(=O)c2c(SCC(=O)NCc3ccco3)nc(-c3ccccc3F)nc2n(C)c1=O -6.2%
Cc1ccc(NC(=O)Nc2cc3c(cc2N2CCCCC2)n(C)c(=O)n3C)cc1Cl -43.6%
CCOc1ccccc1NC(=O)COc1cccc2c(=O)n(CCOC)ccc12 -23.5%
COc1ccc(-c2[nH]ncc2C(=O)NCc2cccc(OC)c2)cc1 -12.2%
COc1cccc(CNCc2cccn2-c2nnc(N3CCN(c4ccccc4)CC3)s2)c1 -18.9%
CCOc1cccc2cc(-c3cn4c(n3)sc3ccccc34)c(=O)oc12 10.7%
Cc1ccsc1CN(C(=O)COc1ccc(Cl)cc1)C1CCS(=O)(=O)C1 (stereo not given) -14.2%
O=C(CCn1c(=O)c2sccc2n(CC(=O)Nc2ccccc2)c1=O)NCc1ccccc1Cl 8.74%
CCn1c(=O)cc(SCC(=O)NCc2ccc(Cl)cc2)c2ccccc21 -9.16%
CCOC(=O)[C@H](CCc1ccccc1)N[C@@H](C)C(=O)N1CCC[C@H]1C(=O)O 0.478%
Cc1ccc(CNC(=O)CSc2nnc(C)c3c(C)n(-c4ccccc4)nc23)cc1 -45.4%
CC1CCN(S(=O)(=O)c2ccc3c(ccc(=O)n3CC(=O)NCc3ccccc3Cl)c2)CC1 -12.6%
Cc1cc(OCC(=O)NC(Cc2c[nH]c3ccccc23)C(=O)O)ccc1Cl (stereo not given) -0.648%
Cc1oc2ncn(C)c(=O)c2c1C(=O)Nc1ccc(F)cc1 6.2%
CCOC(=O)c1[nH]c(C)c(CCC(=O)Nc2ccccc2C(=O)OC)c1C -28.5%
Cc1cc(N2CCN(c3ccc(F)cc3)CC2)n2nc(-c3ccc(Cl)cc3)nc2n1 -3.9%
CCc1nn(CC(=O)NCCc2ccc(Cl)cc2)c(=O)c2cc3ccccc3n12 -5.24%
Cc1ccc(-c2nnc(Nc3ccccc3)c3ccccc23)cc1S(=O)(=O)N1CCOCC1 11.4% [at 11.5 µM, percent change from vehicle, -100% = no light]
CCOc1ccc2nc(N(Cc3cccnc3)C(=O)C3CCCCC3)sc2c1 -10.9%
Cc1ccc(CNC(=O)c2ccc3c(c2)N(Cc2ccccc2Cl)C(=O)CS3)cc1 -26.7%
Cc1cccc(N2CCN(C(=O)c3oc(=O)c4ccccc4c3-c3ccccc3)CC2C)c1 (stereo not given) -13.1%
COc1ccc(Cn2c(CCC(=O)Nc3ccc(C)cc3C)nc3cccnc32)cc1 -14.3%
O=C1CC2(CCCC2)CC(=O)N1CCNCC1COc2ccccc2O1 (stereo not given) 0.926%
COc1cccc(CNC(=O)c2cccc(-n3c(C)nc4cccnc43)c2C)c1 -12.9%
Cc1cccc(CSc2nc(=O)c3c(n2C)NC(=O)CC3c2cc(F)cc(F)c2)c1 (stereo not given) -14%
CC(C)OCCCNC(=O)c1ccc(Cn2c(=O)c3cccn3c3cccnc32)cc1 -17.1%
Cc1cccc(NC(=O)c2oc3ccccc3c2NC(=O)c2cc(=O)c3ccc(C)cc3o2)c1 -7.42%
Cc1cc(NC(=O)CCc2nc3cccnc3n2Cc2cccs2)ccc1Br -24.3%
